Source: PubChem BioAssay AID624417 (National Center for Advancing Translational Sciences (NCATS), 2012)
Screen size: about 410,000 compounds; about 6,400 (1.6%) were called active. Inconclusive means that the source gave no clear call. Such entries were picked first, then a sample of the others. Calls follow the shape of the dose curve; as a rule, active = well fitted inhibition curve with a large enough effect; inconclusive = small, poorly fitted or top-dose-only effect; inactive = no such curve, though single readings can be large or run the other way. Potencies of inconclusive entries are left out as doubtful fits.

Each compound was assayed against Glucagon-like peptide 1 receptor (Homo sapiens) (UniProt P43220) (assay: qHTS of GLP-1 Receptor Inverse Agonists (Inhibition Mode)). Settings: HEK293 GLP-1R CRE-luciferase, luminescence, 24 h, GLP-1R form is constitutively active; series mostly up to 38.3 µM.
UniProt P43220, sequence (P43220 whole entry, looked up): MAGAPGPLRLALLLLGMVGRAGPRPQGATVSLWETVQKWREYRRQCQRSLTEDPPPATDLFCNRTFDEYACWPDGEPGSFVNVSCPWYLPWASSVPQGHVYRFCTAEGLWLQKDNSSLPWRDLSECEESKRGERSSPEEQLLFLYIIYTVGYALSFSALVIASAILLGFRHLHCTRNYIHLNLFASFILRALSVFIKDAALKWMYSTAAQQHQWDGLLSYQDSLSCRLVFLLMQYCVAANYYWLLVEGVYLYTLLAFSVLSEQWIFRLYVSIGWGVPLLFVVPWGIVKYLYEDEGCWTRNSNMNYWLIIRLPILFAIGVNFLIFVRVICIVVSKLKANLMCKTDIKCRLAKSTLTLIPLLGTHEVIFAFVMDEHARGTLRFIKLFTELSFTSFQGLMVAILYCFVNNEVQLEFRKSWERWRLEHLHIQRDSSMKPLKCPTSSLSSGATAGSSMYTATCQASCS
In short: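 Constitutively active GLP-1R drives a cAMP-responsive luciferase in stably transfected HEK293 cells; test compounds are added after overnight (12 h) attachment and left 24 hr, and signal loss in luminescence marks inhibition.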
Also: nearly all actives have a fitted effect of over 55% in size.
Potency is read from the fitted curve at half-maximal effect; tags tell the direction and shape of the fitted curve.

| SMILES | Potency |
| --- | --- |
| CN(Cc1ccc(F)cc1)C(=O)c1cccc(S(=O)(=O)N2CCN(c3ccccc3)CC2)c1 | inconclusive [inhibitor, single point] |
| CC1CC(C)CN(CC(=O)Nc2ccc3c(c2)OCCO3)C1 (stereo unspecified) | inconclusive [inhibitor, single point] |
| CCOc1ccc(N(CC(=O)N2CCc3ccccc32)S(=O)(=O)c2c(C)noc2C)cc1 | inconclusive [inhibitor, full curve, poor fit] |
| CCOC(=O)c1ccc(NCC(O)COc2ccccc2)cc1 (stereo unspecified) | inconclusive [inhibitor, partial curve] |
| CCCc1nc2cc(C)c(Br)c(C)n2c1CC1CCCCC1 | inconclusive [inhibitor, partial curve, poor fit] |
| COc1ccc(S(=O)(=O)N2CCCCCC2)cc1C(=O)N(C)Cc1ccccc1F | inconclusive [inhibitor, single point] |
| O=C(Nc1cccc(S(=O)(=O)NCc2ccco2)c1)c1cc(-c2ccc(F)cc2)nc2ccccc12 | inconclusive [inhibitor, partial curve, poor fit] |
| CC(C)CC(OC(=O)c1ccco1)C(=O)NC1CCCC1 (stereo unspecified) | inactive |
| Oc1ccc(/C=N/NC(=S)NC2CC3CCC2C3)cc1 (stereo unspecified) | inconclusive [inhibitor, single point] |
| COc1ccc(-n2c(COc3ccc(Cl)cc3Cl)n[nH]c2=S)cc1 | inconclusive [inhibitor, single point] |
| O=C(CNC(=O)C12CC3CC(CC(C3)C1)C2)NCc1ccccc1 | inconclusive [inhibitor, single point] |
| CC(=O)c1ccccc1OCC(O)CN1CCN(C(c2ccccc2)c2ccccc2)CC1 (stereo unspecified) | inconclusive [inhibitor, partial curve, poor fit] |
| O=C(C1CCN(Cc2ccc(F)cc2)CC1)N1CCN(C/C=C/c2ccccc2)CC1 | inconclusive [inhibitor, partial curve, poor fit] |
| Cc1cc2nccc(-c3cccnc3)n2n1 | inactive |
| Cc1cccc(C)c1OCC(=O)NCc1nnc(SCC(=O)NC2CCCCC2)n1C | inactive |
| COc1ccc(C(=O)NC2CCCCCCC2)cc1OC | inconclusive [inhibitor, partial curve, poor fit] |
| CC(C)(C)NC(=O)/C(=C/c1ccco1)c1ccccc1 | inconclusive [inhibitor, full curve, poor fit] |
| O=C(CN1C(=O)NC2(CCCc3ccccc32)C1=O)c1ccc(F)c(F)c1 (stereo unspecified) | inconclusive [inhibitor, single point] |
| Cc1ccc(-n2c(C)cc(C3=NNC(=NC4CC4)SC3)c2C)cc1C | inconclusive [inhibitor, partial curve, poor fit] |
| COc1ccc(-c2coc3cc(OC(C)=O)c(OC)cc3c2=O)cc1 | inactive |
| Cc1ccc(S(=O)(=O)Cc2ccccc2Cl)cc1 | inconclusive [inhibitor, single point] |

| SMILES | Potency |
| --- | --- |
| Cc1csc2ncc(C(=O)NCCC(c3ccccc3)c3ccccc3)c(=O)n12 | inconclusive [inhibitor, single point] |
| CC1CC(C)CN(S(=O)(=O)N2CCCC(C(=O)NCc3ccccc3Cl)C2)C1 (stereo unspecified) | inconclusive [inhibitor, partial curve, poor fit] |
| Cc1cc(F)ccc1S(=O)(=O)Nc1ccccc1C(=O)NCc1ccccn1 | inconclusive [inhibitor, partial curve, poor fit] |
| O=C(NC(Nc1ncc(S(=O)(=O)c2ccc([N+](=O)[O-])cc2)s1)(C(F)(F)F)C(F)(F)F)c1ccc(Cl)cc1 | inconclusive [inhibitor, full curve, poor fit] |
| Cc1ccc(-n2nc3c(N4CCC(C(=O)NC5CCC(C)CC5)CC4)nnc(C)c3c2C)cc1 (stereo unspecified) | inactive |
| Cc1ccc(-c2cnc(NC(=O)c3cccc(Br)c3)s2)c(C)c1 | inconclusive [inhibitor, partial curve, poor fit] |
| C/C(N)=C(/C#N)C(=O)CSc1nc2ccccc2c(=O)n1Cc1ccc(C)cc1 | inconclusive [inhibitor, single point] |
| COC(=O)C1=C(C)N(Cc2ccccc2)C(=NCCCCO)N[C@H]1CCc1ccccc1 | inconclusive [inhibitor, single point] |
| CN1CCC(C(=O)N2CCCC(C(=O)c3ccc4c5c(cccc35)CC4)C2)CC1 (stereo unspecified) | active: 8.91 µM |
| CCC(=O)Nc1ccc2nc(C3CC3)n(Cc3ccc(C(C)(C)C)cc3)c(=O)c2c1 | inconclusive [inhibitor, full curve] |
| O=C(Nc1ccc(Br)cc1F)c1sccc1-n1cccc1 | inconclusive [inhibitor, single point] |
| Cc1cccc(-n2c(Cc3ccccc3)nnc2SCC(=O)N2CCOCC2)c1 | inconclusive [inhibitor, partial curve] |
| COC(=O)c1ccccc1-c1c2ccc(=N)cc-2oc2cc(N)ccc12 | inactive |
| O=c1c(S(=O)(=O)c2ccc(Cl)cc2)cn(Cc2cccc(F)c2)c2ccc(F)cc12 | inactive |
| CC(=O)Nc1ccc(N=NC2C(=O)N(C(N)=S)N=C2C)cc1 (stereo unspecified) | inactive |
| Cc1csc2nc(COC(=O)c3cccc(NC(=O)c4cccc(Cl)c4)c3)cc(=O)n12 | inactive |
| COC(=O)c1cccc(NC(=S)N2CCOCC2)c1 | inactive |
| COc1ccc(C2=NOC(Cn3nc(C(=O)NCc4ccco4)cc3-c3ccccc3)C2)cc1 (stereo unspecified) | inconclusive [inhibitor, single point] |
| COc1ccc(C(C)(O)c2nc(-c3ccc(F)cc3OC)cs2)cc1 (stereo unspecified) | inconclusive [inhibitor, full curve, poor fit] |
| O=S(=O)(Nc1cccc(C(F)(F)F)c1)c1ccc(NS(=O)(=O)c2ccc3c(c2)OCCO3)cc1 | inconclusive [inhibitor, single point] |
